Some of the results follow. Sequences were assembled here from the parent chain. Values near 0.05 are background.
B1: TEV protease; numbered along this chain (parent)
chain: MGESLFKGPRDYNPISSSICHLTNESDGHTTSLYGIGFGPFIITNKHLFRRNNGTLVVQSLHGVFKVKDTTTLQQHLVDGRDMIIIRMPKDFPPFPQKLKFREPQREERICLVTTNFQTKSMSSMVSDTSCTFPSGDGIFWKHWIQTKDGQCGSPLVSTRDGFIVGIHSASNFTNTNNYFTSVPKNFMELLTNQEAQQWVSGWRLNADSVLWGGHKVFMVKPEEPFQPVKEATQL

Variants of: B1
Assay: raw area under fraction-flipped curve 0-4 h after induction (AUC4h, not background-subtracted), DNA-recorder readout of cleavage of the substrate (dimensionless); higher = more cleavage of the substrate by the protease variant
Settings: temperature: 34 °C; time window: 0-4 h after rhamnose induction
Procedure: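 In vivo DNA recorder in E. coli TOP10(DE3) ΔrhaA at 34 °C. Each TEVp single-site mutant (parent TEVp 0) is paired with a single-site variant of the 7-mer TEVs (canonical ENLYFQ|S). The substrate sits between flexible linkers in a Bxb1-sfGFP-TEVs-SsrA fusion, so cleavage stabilises Bxb1 and speeds flipping of a recombination array, read by NGS. The value is the raw area under the fraction-flipped curve over 0-4 h after rhamnose induction (AUC4h), with ≥20 reads per time point. It is not background-subtracted; inactive controls average about 0.047.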
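Note: Bxb1 expression induced with 0.2% (w/v) L-rhamnose at OD600 near 0.5, cultures sampled hourly, flipped fraction per protease–substrate barcode pair counted by paired-end Illumina sequencing.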

Row | Variant | area with substrate ENAYFQS | area with substrate ENCYFQS | area with substrate ENDYFQS | area with substrate ENEYFQS | area with substrate ENFYFQS | area with substrate ENGYFQS | area with substrate ENIYFQS | area with substrate ENPYFQS | area with substrate ENQYFQS | area with substrate ENSYFQS | area with substrate ENTYFQS | area with substrate ENYYFQS | area with substrate ENHYFQS | area with substrate ENKYFQS | area with substrate ENNYFQS | area with substrate ENRYFQS | area with substrate ENVYFQS | area with substrate ENMYFQS | area with substrate ENWYFQS
1 | A207T | 0.0585 | 0.0676 | 0.0707 | 0.0549 | 0.0816 | 0.0492 | 0.105 | 0.0576 | 0.0555 | 0.0634 | 0.101 | 0.0535 |  |  |  |  |  |  | 
2 | A207K | 0.0548 |  | 0.0643 | 0.0481 |  |  |  |  | 0.064 | 0.101 |  |  | 0.0757 | 0.0648 | 0.0581 | 0.066 | 0.0724 |  | 
3 | R87H |  | 0.0633 |  | 0.0434 |  | 0.0739 |  | 0.066 | 0.0716 |  | 0.0767 | 0.0777 | 0.0648 | 0.0622 | 0.0532 | 0.0606 | 0.0692 | 0.0665 | 
4 | R102M |  | 0.0541 | 0.056 | 0.0408 |  | 0.0471 | 0.0629 |  | 0.0408 |  | 0.0466 | 0.0521 | 0.0546 | 0.0462 |  | 0.049 | 0.0712 |  | 0.0716
5 | L211M | 0.0612 |  | 0.0558 | 0.0677 |  |  | 0.109 |  | 0.0649 | 0.0522 | 0.0579 | 0.0532 | 0.0963 | 0.0694 | 0.0538 | 0.0655 | 0.0761 | 0.065 | 0.0517
6 | F226E | 0.0623 |  | 0.0575 | 0.0661 | 0.0641 | 0.0716 | 0.101 | 0.0553 | 0.0592 | 0.0624 |  | 0.0651 |  |  | 0.0745 | 0.0502 | 0.076 | 0.0884 | 
7 | F226G | 0.0628 |  | 0.0705 | 0.072 | 0.0467 | 0.0647 |  | 0.0625 | 0.0601 | 0.0844 |  | 0.053 |  | 0.0597 | 0.0535 | 0.0662 | 0.0793 |  | 
8 | P225K | 0.0674 | 0.079 | 0.0593 | 0.0555 |  | 0.0585 | 0.135 |  | 0.0587 | 0.0585 | 0.0561 |  | 0.0527 | 0.0665 |  |  | 0.0592 |  | 
9 | P225C | 0.078 | 0.0532 |  |  |  | 0.0616 | 0.0847 |  | 0.0546 | 0.0971 | 0.0602 |  | 0.054 |  | 0.0595 |  | 0.0899 | 0.091 | 
10 | W203V | 0.0563 | 0.0537 | 0.063 | 0.0548 | 0.0617 | 0.0746 | 0.0683 | 0.0562 | 0.0609 | 0.0517 | 0.0597 | 0.0592 | 0.0554 | 0.0588 | 0.0647 | 0.0653 | 0.0545 | 0.054 | 
11 | G213R | 0.0552 | 0.0661 | 0.055 | 0.0581 | 0.0592 | 0.0691 | 0.0542 | 0.0591 | 0.0578 | 0.0665 | 0.0602 |  | 0.0648 | 0.0548 | 0.0569 | 0.0565 | 0.0599 | 0.057 | 0.0593
12 | N53D |  | 0.0634 | 0.0616 | 0.0635 | 0.0646 | 0.0655 |  | 0.0513 | 0.0629 | 0.0886 | 0.0705 | 0.0453 |  | 0.0884 | 0.0721 | 0.0169 |  |  | 0.021
13 | V210N | 0.065 | 0.0519 | 0.042 | 0.0353 | 0.0608 |  |  | 0.0628 | 0.0594 | 0.0718 | 0.067 |  | 0.0579 | 0.0637 | 0.0601 | 0.0584 | 0.0651 |  | 0.064

From the supplement of paper PMC12217912
